The results in this text go back to PubChem BioAssay AID1963576 (National Center for Advancing Translational Sciences (NCATS), 2024).

In all, about 46,000 compounds went through this assay and about 60 (0.1%) were called active. About 3% were inconclusive and are not listed. Calls follow the shape of the dose curve; as a rule, active = well fitted inhibition curve with a large enough effect; inconclusive = small, poorly fitted or top-dose-only effect; inactive = no such curve, though single readings can be large or run the other way. This is one part of the list.

The nature of the test: Primary qHTS assay for Inhibitors of ovarian cancer metastasis using an organotypic tumor microenvironment (TME) model. Also: nearly all actives have a fitted effect of over 65% in size.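 As to activity change, negative = inhibition: plate controls were DMSO wells for no effect and tomatine positive control wells for full effect.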 Particulars: SKOV3ip1-GFP adhesion/invasion on 3D omental model, fluorescence; series mostly up to 45.8 µM; activity change, negative = inhibition: at the top concentration. Put shortly: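 A 3D layer of primary human omental fibroblasts, mesothelial cells, fibronectin and collagen I, grown 48 hr, received SKOV3ip1-GFP cells in serum-free medium plus compounds at 0.36-46 umol/L. After 2 hr RT and 16 hr 37 C, fixed adherent GFP cells were counted; normalized to DMSO and tomatine.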
For the compound `CCc1ccc(-n2c(=O)c3cccnc3n2CC(=O)NCc2ccc(C)cc2)cc1`, the compound was classed as inactive.
Turning to `COc1ccc(Nc2c(-c3ccccn3)nc3ccc(Cl)cn23)cc1`, the “activity change, negative = inhibition” value is inactive: 0.238%.
For the compound `COc1cccc(Nc2nc3ccc(C)cc3nc2-n2nc(C)cc2C)c1`, the “activity change, negative = inhibition” value was inactive: 4.87%.
As to `O=C(NCc1ccccc1)c1cnc(N2CCCCC2)c2ccccc12`, the result was inactive.
In the case of `COc1ccc(CCNC(=O)CSc2n[nH]c(-c3ccccc3Cl)n2)cc1OC`, the “activity change, negative = inhibition” value is inactive: 11.3%.
Still for that read-out and setting: as for `COc1ccc(Cl)cc1NC(=O)CSC1=Nc2ccccc2C2=NC(CC(=O)NCc3cccs3)C(=O)N12` (stereo not drawn), the figure is inactive: 5.37%.
On the same count and under the same terms, as for `O=C(CSc1cn(CC(=O)N2CCCCC2)c2ccccc12)Nc1ccc(C(F)(F)F)cc1`, the figure is inactive: 9.18%; as for `COc1cccc(N2CCN(S(=O)(=O)c3ccc(-c4ccno4)cc3OC)CC2)c1`, inactive: 4.94%; as for `COc1ccc(OC)c(C2NC(=O)NC(C)=C2C(=O)Nc2ccc(F)cc2)c1` (stereo not drawn), inactive: 8.04%.
In the case of `O=C(CSc1nc(-c2ccc(F)cc2)cc(C(F)(F)F)n1)NCCc1ccccc1`, the compound was called inactive.
For `COC(=O)c1c(C)nn(-c2ccc(F)cc2)c1-n1cccc1`, the compound was called inactive.
The same measure, in the same setting: as for `CCc1cccc(Nc2ncnc3onc(-c4ccc(F)cc4)c23)c1`, the entry is “inactive”.
For `Cc1ccc(C(c2sc3nc(-c4ccco4)nn3c2O)N2CCC3(CC2)OCCO3)cc1` (stereo not drawn), the “activity change, negative = inhibition” value is inactive: -2.41%.
Regarding `Cc1ccc(NC(=O)CSc2nc(-c3ccccc3Cl)nc3cc(=O)[nH]n23)c(C)c1`, the result was inactive.
Turning to `CCN(CC)CCNC(=O)c1sc2ncccc2c1-n1cccc1`, the “activity change, negative = inhibition” value was inactive: 0.555%.
`Cc1ccc(C(=O)NCc2ccc(F)cc2)cc1NC(=O)c1nsc2ccccc12`: the “activity change, negative = inhibition” value is inactive: -5.86%.
On to `COc1ccc(NC(=O)c2ccco2)cc1NC(=O)COc1ccc(Cl)cc1C`, for which the “activity change, negative = inhibition” value is inactive: -10.6%.
On to `COc1cccc(N2CCN(C(=O)c3ccc(NC(=O)c4nsc5ccccc45)cc3)CC2)c1`, for which the “activity change, negative = inhibition” value is inactive: -3.19%.
Take `CN1CCN(CCOc2cc(OC3CCOCC3)c3c(Nc4c(Cl)ccc5c4OCO5)ncnc3c2)CC1`: the “activity change, negative = inhibition” value is inactive: 1.87%.
On to `O=C(Nc1ccc2nc(SCC(=O)N3CCc4ccccc43)sc2c1)c1ccccc1F`, for which the result was inactive.
Regarding `COc1ccc(CNC(=O)CCc2nc(-c3ccc(C)cc3)no2)c(OC)c1`, the “activity change, negative = inhibition” value is inactive: -19.8%.
On to `Cn1c(=O)n(C)c2cc(N3CCCCC3)c(NC(=O)c3ccc(C(C)(C)C)cc3)cc21`, for which the “activity change, negative = inhibition” value is inactive: 2.69%.
Take `Cn1cc(S(=O)(=O)c2ccccc2)c(=O)c2cc(F)c(N3CCCCCC3)cc21`: the “activity change, negative = inhibition” value was inactive: -8.33%.
In the case of `Cc1cc(C)cc(-n2c(SCC(=O)Nc3ccc4c(c3)OCCO4)nc3c([nH]c4ccccc43)c2=O)c1`, the call was inactive.
With `Cc1ccc(NC(=O)c2ccc(NC(=O)N3CCSc4ncccc43)cc2)c(C)c1`, the “activity change, negative = inhibition” value is inactive: 0.76%.
For `COc1cc(C(=O)Nc2nonc2-c2ccc(C)c(C)c2)cc(OC)c1OC`, the “activity change, negative = inhibition” value is inactive: 0.305%.
On the same count and under the same terms, the same measure for `COc1ccc(C)cc1-n1cnc2cc(C(=O)NC3CCCC3)ccc21`: inactive: -4.04%; for `COc1ccccc1NC(=O)Cn1c(=O)n(CCCCCC(=O)NCc2ccccc2)c(=O)c2sccc21`: inactive: 3.5%.
The same measure, in the same setting: the same measure for `CCOC(=O)c1c(C)oc2nc(C)nc(NCc3ccccc3OC)c12`: inactive: 4.18%; for `O=C(CSc1nc2c([nH]c3ccccc32)c(=O)n1-c1ccc(Cl)cc1)NCC1CCCO1` (stereo not drawn): inactive: 29%; for `CCOc1ccc(/C=C/c2nc(C#N)c(NCCc3ccccc3)o2)cc1`: inactive: -4.61%.
The same measure, in the same setting: the same measure for `Cc1cc(C(=O)Nc2c(C)nc3ccccn3c2=O)ccc1[N+](=O)[O-]`: inactive: 0.837%; for `O=C(NCC1CN(c2ccc(N3CCOCC3=O)cc2)C(=O)O1)c1ccc(Cl)s1` (stereo not drawn): inactive: -13.5%; for `CC1Cc2cc(S(=O)(=O)N(Cc3ccccc3)C(C)C)ccc2N1C(=O)C1CCC1` (stereo not drawn): inactive: -6.66%.
With `Cc1ccccc1Nc1c(-c2cccs2)nc2cccc(C)n12`, the “activity change, negative = inhibition” value was inactive: 0.0995%.
For `Cc1ccc(-n2c(SCC(N)=O)nc3c(oc4ccccc43)c2=O)cc1C`, the result was inactive.
In the case of `CCOc1cc(CNC(=O)Cn2c(-c3cccs3)cc3cc(F)ccc32)ccc1OC`, the “activity change, negative = inhibition” value is inactive: -3.31%.
As for `CC(=O)Nc1ccc(S(=O)(=O)NC2(C(F)(F)F)NC(=O)N(CCc3ccc(F)cc3)C2=O)cc1` (stereo not drawn), the “activity change, negative = inhibition” value is inactive: 9.43%.
With `O=C(Cn1c(=O)oc2cc(S(=O)(=O)NCc3ccccc3)ccc21)NCc1ccc(Cl)cc1`, the compound was called inactive.
For `COc1cccc(C(=O)Nc2ccccc2-c2nnc(-c3cccc(OC)c3)o2)c1`, the “activity change, negative = inhibition” value is inactive: 0.119%.
In the case of `O=C(Nc1cccc(F)c1)c1ccc(-c2ccccc2)s1`, the “activity change, negative = inhibition” value is inactive: 14.8%.
Regarding `CCCN(CCC)CCCNC(=O)Cn1cnc2sc(C)c(S(=O)(=O)N3CCC(C)CC3)c2c1=O`, the “activity change, negative = inhibition” value was inactive: -2.21%.
Take `CCN(C)C(=O)Oc1cccc([C@H](C)N(C)C)c1`: the “activity change, negative = inhibition” value was inactive: -28.6%.
`O=C(c1cccs1)N1CCCc2cc(NS(=O)(=O)c3ccc(F)cc3F)ccc21`: the “activity change, negative = inhibition” value is inactive: 1.31%.
As for `COC(=O)C1CCN(S(=O)(=O)c2cc3c4c(c2)CC(=O)N4CCC3)CC1`, the “activity change, negative = inhibition” value is inactive: 0.529%.
As for `Cc1cccc(NS(=O)(=O)c2ccc3c(c2)CCN3C(=O)C2CCC2)c1`, the outcome was inactive.
Consider `COC(=O)C1=C(c2ccccc2)c2ccccc2S(=O)(=O)N1CC(=O)Nc1ccccc1Cl`, for which the call was inactive.
`CCOCCCn1c(=N)c(C(=O)NCC2CCCO2)cc2c(=O)n3cccc(C)c3nc21` (stereo not drawn): the “activity change, negative = inhibition” value was inactive: -1.77%.
